Measured values published in PubChem BioAssay (NCI).
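Five compound concentrations were applied to cells in 96-well plates for 48 hours; endpoints were derived by simple linear interpolation of the resulting dose-response curve. At the GI50, growth is halved. At the TGI there is no net growth.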 Peptide text beside a SMILES is read from it. * marks the point of attachment. Fmoc = O=C(OCC1c2ccccc2-c2ccccc21)*; OtBu = CC(C)(C)O*

What follows are compounds tested on NCI-H322M lung (assay: NCI tumour cell line growth inhibition, 48 h).

**Q.** How did the TGI turn out when `NNC(=O)C(=O)N/N=C(\CCCC(=O)Nc1ccc(Cl)cc1)CC(=O)c1ccc(F)cc1` was run?
**A.** > 100 µM

**Q.** Which GI50 does the source give for `CCc1ccc(Oc2c(-c3ccc(OCc4ccc(Cl)cc4)cc3O)n[nH]c2C(F)(F)F)cc1` here?
**A.** 2.05 µM

**Q.** What about the TGI of the same compound?
**A.** 5.02 µM

**Q.** Which TGI does the source give for `CC[C@]12C=CCN3CC[C@@]4(c5cc(N=O)c(OC)cc5N(C)[C@H]4[C@@](O)(C(=O)OC)[C@@H]1OC(C)=O)[C@@H]32` here?
**A.** > 100 µM

**Q.** `CCn1cc2c(=O)n3ncn(-c4ccc(Br)cc4)c3nc2n1` was tested. Which TGI did it give?
**A.** > 100 µM

**Q.** For `O=C(O)CSc1n[nH]c(=O)[nH]c1=O`, which TGI is on record?
**A.** > 100 µM

**Q.** For `COc1ccc(CNc2cnc3cc(N)ccc3n2)cc1`, which TGI is on record?
**A.** > 100 µM

**Q.** How did the TGI turn out when `Cc1ccc(CC(Cc2ccccc2C)C(=O)O)c(C(=O)O)c1` (stereo unspecified) was run?
**A.** > 100 µM

**Q.** `CCc1cccc(C(C)C)c1NC(=O)C(=O)C1C(=O)Nc2ccccc2S1=O` (stereo unspecified) was tested. Which TGI did it give?
**A.** > 100 µM

**Q.** How did the TGI turn out when `Cc1c2ccccc2c(C2C3C(=O)N(c4ccc(Br)cc4)C(=O)C3ON2C(C(N)=O)c2ccccc2)c2ccccc12` (stereo unspecified) was run?
**A.** > 100 µM

**Q.** Which TGI does the source give for `COc1ccc(C2SC(N)=Nc3c2c(C)nn3C(=O)c2ccccc2O)cc1OC` (stereo unspecified) here?
**A.** > 10 µM

**Q.** Which TGI does the source give for `Cc1ccc(C)n1-c1ccccc1C1C=Cn2c(=O)nnc3c(OC(C)C)c(OC(C)C)c(O)c1c32` (stereo unspecified) here?
**A.** > 100 µM

**Q.** `CC(=O)O[C@@H]1C2CCC3C(CC[C@@]4(C)C3CC[C@@H]4C(C)N(C)C)[C@@]2(C)CC[C@@H]1NC(=O)C=C(C)C` (stereo partly specified) was tested. Which GI50 did it give?
**A.** 2.53 µM

**Q.** What about the TGI of the same compound?
**A.** 6.93 µM

**Q.** How did the TGI turn out when `Cc1ccc2c(c1)SC1=Nc3sc4cc(C)ccc4[n+]3CN12` was run?
**A.** 52 µM

**Q.** What does the source list for `Nc1nc(/C=C\c2ccc([N+](=O)[O-])s2)nc(N2CCN(c3ccccc3)CC2)n1`?
**A.** GI50: 19.8 µM; TGI: 49.8 µM

**Q.** For `CCOC(=O)c1cnc(N(C)C)nc1SC(=N)N`, which TGI is on record?
**A.** > 100 µM

**Q.** `Cc1cc(NC2=CC(=O)C(=O)c3ccccc32)no1` was tested. Which TGI did it give?
**A.** 30.7 µM

**Q.** Which TGI does the source give for `C=CCNC(=O)NCCCCC(NC(C)=O)C(=O)NCc1ccccc1` (stereo unspecified) here?
**A.** > 100 µM

**Q.** With `CNC(=O)OCc1nc(SC)n(C)c1CO` as the compound, how does the TGI read?
**A.** > 100 µM

**Q.** With `CCOC1OC(COC(=O)C(C)(C)C)C(O)CC1n1cc(C)c(=O)[nH]c1=O` (stereo unspecified) as the compound, how does the TGI read?
**A.** > 100 µM

**Q.** How did the TGI turn out when `CC1CC(N)=C(C#N)C1(C#N)C#N` (stereo unspecified) was run?
**A.** > 100 µM

**Q.** With `Cc1ccc(CC2(C(=O)O)Cc3ccc(C)cc3C2)cc1` (stereo unspecified) as the compound, how does the TGI read?
**A.** > 100 µM

**Q.** How did the TGI turn out when `CC(C)C(NC(=O)OCC1c2ccccc2-c2ccccc21)C(=O)NC(CCC(=O)OC(C)(C)C)C(=O)OC(C)(C)C` (stereo unspecified) (Fmoc-Val-Glu(OtBu)-OtBu; configuration not given here) was run?
**A.** > 100 µM

**Q.** With `CCC[C@H]1O[C@@H]2CC(=O)O[C@@H]2C2=C1C(=O)C=CC2=O` as the compound, how does the TGI read?
**A.** > 100 µM

**Q.** `COc1ccc(C(=O)C#Cc2cn(C3CC(O)C(CO)O3)c(=O)[nH]c2=O)cc1` (stereo unspecified) was tested. Which TGI did it give?
**A.** > 100 µM

**Q.** For `OCC1C(OCc2ccccc2)C(OCc2ccccc2)C(OCc2ccccc2)CN1Cc1ccccc1` (stereo unspecified), which TGI is on record?
**A.** 70.5 µM

**Q.** Which GI50 does the source give for `Oc1c(Cl)cc(Cl)c(Cl)c1CNCCNCc1c(O)c(Cl)cc(Cl)c1Cl` here?
**A.** 0.779 µM

**Q.** What about the TGI of the same compound?
**A.** 6.37 µM

**Q.** For `COC(=O)c1c([N+](=O)[O-])ncn1[C@H]1OC[C@@H](OC(C)=O)[C@@H](OC(C)=O)[C@@H]1OC(C)=O`, which TGI is on record?
**A.** > 100 µM

**Q.** Which GI50 does the source give for `Cc1ccc(O)c(NC(=O)c2cccc(Nc3ccnc(C(F)(F)F)c3)c2)c1` here?
**A.** 13.1 µM

**Q.** What about the TGI of the same compound?
**A.** 74.9 µM

**Q.** With `O=c1c2c(nc3n1CCS3)[nH]c1cc([N+](=O)[O-])ccc12` as the compound, how does the GI50 read?
**A.** > 100 µM

**Q.** And the TGI?
**A.** > 100 µM

**Q.** `CCCCc1ccc(N=C(N)N)cc1` was tested. Which TGI did it give?
**A.** > 100 µM

**Q.** With `CC(=O)OC[C@H]1CN(OC(C)=O)C[C@@H](n2cc(C)c(=O)[nH]c2=O)O1` as the compound, how does the TGI read?
**A.** > 100 µM

**Q.** Which GI50 does the source give for `CNC(=O)c1c(C)oc2cc(Oc3ncnc4cc(OC)c(OC)cc34)ccc12` here?
**A.** > 100 µM

**Q.** And the TGI?
**A.** > 100 µM

**Q.** `COc1ccc(Nc2nc3cc(N)cc(N)c3nc2-c2ccccc2)cc1` was tested. Which GI50 did it give?
**A.** 23.4 µM

**Q.** What about the TGI of the same compound?
**A.** 83.6 µM

**Q.** `COc1cc2cc(OC(C)=O)c3cc4c(cc3c2c(OC)c1OC)OCO4` was tested. Which TGI did it give?
**A.** > 100 µM

**Q.** With `CCOC(=O)Cc1c(C)c2cc(C(=O)c3ccccc3)c(O)cc2oc1=O` as the compound, how does the TGI read?
**A.** > 100 µM

**Q.** How did the TGI turn out when `NC(=O)NNC(=O)CCn1[nH]c(=O)c(Cl)c(Cl)c1=O` was run?
**A.** > 100 µM

**Q.** With `C/C(=N\N=C(N)N)C(CN1CCCCC1)C(c1ccccc1)c1c(O)c2ccccc2oc1=O` (stereo unspecified) as the compound, how does the TGI read?
**A.** > 100 µM

**Q.** `N#CC12C(=O)N3C(=NC(c4ccco4)NC3c3ccco3)C1(C#N)C(c1ccco1)NC1=C2CCCC1` (stereo unspecified) was tested. Which TGI did it give?
**A.** > 100 µM

**Q.** With `C=C(C)[C@H]1CC[C@@]2(C)C(C1)[C@H](C)CC[C@@H]2O` (stereo partly specified) as the compound, how does the TGI read?
**A.** > 100 µM

**Q.** With `CC(C)(C)C1=CC(=C(P(=O)(O)O)P(=O)(O)O)C=C(C(C)(C)C)C1=O` as the compound, how does the TGI read?
**A.** > 50 µM

**Q.** Which TGI does the source give for `NCCSSCc1ccccc1CSSCCN` here?
**A.** > 100 µM

**Q.** `COc1ccccc1/C=C/c1ccnc2ccccc12` was tested. Which TGI did it give?
**A.** 34.9 µM

**Q.** How did the GI50 turn out when `CN[C@H]1CN(c2ccc3c(=O)c(C(=O)O)cn(-c4nccs4)c3n2)C[C@@H]1OC` was run?
**A.** 2.12 µM

**Q.** What about the TGI of the same compound?
**A.** 7.43 µM

**Q.** Which results are given for `CCOC(=O)C1=CCCC[C@H]1S(=O)(=O)Nc1ccc(F)cc1Cl`?
**A.** GI50: 25.3 µM; TGI: > 100 µM

**Q.** For `CC(=O)Nc1ccc(/C=C/C(=O)c2sc(-c3cccnc3)nc2C)cc1`, which TGI is on record?
**A.** > 100 µM

**Q.** How did the TGI turn out when `C=C[C@@H](C)[C@]1(C(=O)OC)CCCC12OCCO2` was run?
**A.** > 100 µM

**Q.** For `C[C@@H]1C[C@H]2[C@@H]3CCC4=CC(=O)C=C[C@]4(C)[C@@]3(F)[C@@H](O)C[C@]2(C)[C@@]1(O)C(=O)CO`, which TGI is on record?
**A.** > 100 µM

**Q.** For `C=C(CCCCC)CN1CCCC1C(C)=O` (stereo unspecified), which TGI is on record?
**A.** > 100 µM

**Q.** With `FC1(F)[Se]C2C3CCC(C3)C2C1(F)F` (stereo unspecified) as the compound, how does the TGI read?
**A.** > 100 µM

**Q.** With `C=CSCCC(N)C(=O)O` (stereo unspecified) as the compound, how does the TGI read?
**A.** > 100 µM

**Q.** How did the TGI turn out when `O=C1NC2c3c(I)sc(I)c3C(=O)C2O1` (stereo unspecified) was run?
**A.** 31.6 µM
